54 compounds from paper PMC4336329 (PLoS ONE, 2015) can be followed below.

The whole screen tested about 310,000 compounds, of which about 2,200 (0.71%) showed an effect of 50% or more. The effect is printed as a negative number. The list shows a part of the results.

Sequence of human ether-à-go-go-related gene (hERG) potassium channel (Q12809 whole entry, looked up): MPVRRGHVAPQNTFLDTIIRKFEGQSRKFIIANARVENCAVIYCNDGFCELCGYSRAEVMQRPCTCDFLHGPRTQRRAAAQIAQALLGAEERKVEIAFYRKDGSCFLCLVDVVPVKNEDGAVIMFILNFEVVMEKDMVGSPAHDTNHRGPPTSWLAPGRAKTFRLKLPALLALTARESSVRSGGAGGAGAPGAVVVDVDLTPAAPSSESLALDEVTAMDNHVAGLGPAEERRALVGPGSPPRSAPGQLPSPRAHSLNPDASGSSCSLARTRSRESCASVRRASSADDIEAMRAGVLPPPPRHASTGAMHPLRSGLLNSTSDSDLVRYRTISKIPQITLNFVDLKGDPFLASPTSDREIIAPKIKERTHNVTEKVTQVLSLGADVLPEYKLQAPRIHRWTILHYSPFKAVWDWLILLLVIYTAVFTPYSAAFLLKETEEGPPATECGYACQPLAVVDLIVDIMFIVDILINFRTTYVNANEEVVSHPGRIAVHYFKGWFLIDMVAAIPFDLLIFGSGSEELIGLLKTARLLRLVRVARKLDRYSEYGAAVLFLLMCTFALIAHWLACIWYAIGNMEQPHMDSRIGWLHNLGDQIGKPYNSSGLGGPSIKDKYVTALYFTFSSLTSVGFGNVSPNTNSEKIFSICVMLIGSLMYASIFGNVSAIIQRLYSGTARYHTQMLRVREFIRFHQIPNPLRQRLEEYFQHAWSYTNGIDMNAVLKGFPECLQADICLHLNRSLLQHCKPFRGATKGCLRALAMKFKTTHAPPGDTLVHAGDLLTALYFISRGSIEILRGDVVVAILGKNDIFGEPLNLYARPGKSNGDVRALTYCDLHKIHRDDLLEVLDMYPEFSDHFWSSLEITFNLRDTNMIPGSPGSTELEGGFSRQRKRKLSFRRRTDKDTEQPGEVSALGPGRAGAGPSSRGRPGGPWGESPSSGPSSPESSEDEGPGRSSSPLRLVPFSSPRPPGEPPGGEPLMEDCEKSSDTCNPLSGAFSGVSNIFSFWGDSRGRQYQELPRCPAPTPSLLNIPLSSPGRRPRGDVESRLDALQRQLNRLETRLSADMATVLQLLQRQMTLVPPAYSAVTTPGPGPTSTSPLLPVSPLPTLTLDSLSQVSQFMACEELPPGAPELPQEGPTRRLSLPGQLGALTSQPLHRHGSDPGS

The assay has as its target human ether-à-go-go-related gene (hERG) potassium channel (human, UniProt Q12809). Put plainly: primary screen, population patch clamp on CHO cells stably expressing hERG.
In the case of `CCN(C(=O)Cn1cc(C(F)(F)F)ccc1=O)c1c(N)n(Cc2ccccc2)c(=O)[nH]c1=O`, the “hERG current change (%, negative = inhibition) at 1uM” value is given as 2.53%.
As to `O=C(COC(=O)C1CCN(c2ccc(C(F)(F)F)cn2)CC1)NCc1ccc(Cl)cc1Cl`, the “hERG current change (%, negative = inhibition) at 1uM” value is 7.52%.
For `CCC(=O)c1ccc(Oc2ccc(C(=O)c3ccc(C)cc3)cc2[N+](=O)[O-])cc1` the value was 11.1%; for `CN(CCCNC(=O)CCC(=O)N1CCOc2ccc(Cl)cc21)Cc1ccccc1`, -48.3%.
Turning to `Cc1nc(CCNC(=O)Cc2ccccc2)cs1`, the “hERG current change (%, negative = inhibition) at 1uM” value turned out to be 8.96%.
For `COc1ccc(OC)c(C(=O)N2CCCC(Nc3ccc(F)cc3)C2)c1` (stereo not drawn), the “hERG current change (%, negative = inhibition) at 1uM” value came out at 0.053%.
For `CCN1CCN(CCCNC(=O)c2cc3cc4ccc(OC)cc4nc3o2)CC1` the value was -1.57%; for `Cc1csc(SC(C)C(=O)NCc2ccc3c(c2)OCO3)n1` (stereo not drawn), 1.31%.
Take `CC(C)(C)NS(=O)(=O)c1ccc(NC(=O)Cc2ccccc2[N+](=O)[O-])cc1`: the “hERG current change (%, negative = inhibition) at 1uM” value is 4.39%.
Take `CS(=O)(=O)c1ccc(C(=O)Nc2ccc(N3CCCCC3)cc2)c(Cl)c1`: the “hERG current change (%, negative = inhibition) at 1uM” value was 12.7%.
For `Cc1cccc(N2CCN(C(=O)Cc3cn(C)c4ccccc34)CC2)c1C` the value was 1.35%; for `Br.O/C(=C\Sc1nnc(Cc2ccccc2)o1)c1ccc(Br)cc1`, 18.9%; for `CN1C(=O)C(=Cc2ccc(Sc3ccccc3)o2)C(=O)N(C)C1=S`, 17.9%.
In the case of `CSc1nnc(N2C(=O)C(O)=C(C(=O)c3ccco3)C2c2ccccc2F)s1` (stereo not drawn) it was -4.71%; in that of `COc1ccc2cc3c(N)nn(C(=O)C4CCC(C(C)(C)C)CC4)c3nc2c1` (stereo not drawn), 5.54%; in that of `O=C1c2oc3ccccc3c(=O)c2C(c2ccc(O)cc2)N1c1nccs1` (stereo not drawn), 12%.
For `COC(=O)[C@@H]1C[C@@]2(O)[C@H](O)[C@H](O)[C@H](O)C[C@H]2N1Cc1cc(OC)cc(OC)c1` the value was 7.27%; for `C=C(C)C1Cc2c(C)nn(-c3nc(C)cc(C)n3)c2C1` (stereo not drawn), 11.3%; for `COC(=O)c1cc(C(=O)Nc2nnc(CC(C)(C)C)s2)cc([N+](=O)[O-])c1`, 12.3%.
In the case of `Cc1ccc(OCC(=O)N2CCc3ccccc32)cc1`, the “hERG current change (%, negative = inhibition) at 1uM” value turned out to be 10.7%.
For `COc1cc(-c2n[nH]c(=S)n2Cc2ccccc2)cc(OC)c1OC`, the “hERG current change (%, negative = inhibition) at 1uM” value is 9.08%.
For `COc1ccc(C2c3ccc(O)cc3Oc3ncn4nc(-c5cccnc5)nc4c32)cc1OC` (stereo not drawn) the value was -9.08%; for `O=C(OCC(=O)c1ccc([N+](=O)[O-])cc1)/C(=C/c1ccc(Cl)cc1)NC(=O)c1ccccc1`, -32.4%; for `COc1cccc(CNC(=O)CCC2CCCN(C(=O)CCn3cncn3)C2)c1` (stereo not drawn), 8.85%.
In the case of `O=S(=O)(Nc1ccc(-n2cccc2)cc1)c1ccc(Cl)cc1Cl` it was 13.5%; in that of `O=C(NCc1ccccn1)Nc1ccc(Cl)cc1`, 13.9%; in that of `c1ccc(-c2nnc3n2NC(c2ccc4c(c2)OCO4)S3)cc1` (stereo not drawn), -6.12%.
For the compound `Oc1c(Cl)cc(Cl)cc1CN1CCN(Cc2ccccc2)CC1`, the “hERG current change (%, negative = inhibition) at 1uM” value is on record as 6.04%.
On to `O=C1OC(Cc2ccccn2)C(=O)C1=C1SCCS1` (stereo not drawn), for which the “hERG current change (%, negative = inhibition) at 1uM” value came to 9.64%.
On to `CCC(=O)CC(c1ccc([N+](=O)[O-])cc1)c1c(O)c2ccccc2oc1=O` (stereo not drawn), for which the “hERG current change (%, negative = inhibition) at 1uM” value is 5.63%.
As for `O=C1C(=O)N(c2nccs2)C(c2ccccc2)/C1=C(\O)c1ccc2c(c1)OCCO2` (stereo not drawn), the “hERG current change (%, negative = inhibition) at 1uM” value was 5.25%.
Consider `CN(C)C(CNC(=O)c1cc2ccccc2oc1=O)c1ccccc1` (stereo not drawn), for which the “hERG current change (%, negative = inhibition) at 1uM” value was 3.59%.
On to `CN(CC(=O)OCC(=O)Nc1ccccc1)S(=O)(=O)c1ccc(Cl)cc1`, for which the “hERG current change (%, negative = inhibition) at 1uM” value was determined as 3.38%.
As for `Cc1ccc(S(=O)(=O)c2c(COC(=O)c3ccccc3Cl)c(-c3ccccc3)nn2C)cc1`, the “hERG current change (%, negative = inhibition) at 1uM” value was 4.54%.
As to `Cc1ccc(SC(=O)COc2ccccc2C)cc1`, the “hERG current change (%, negative = inhibition) at 1uM” value stood at 7.02%.
Turning to `CCOc1cc(C)c(Cl)cc1S(=O)(=O)NCC1CCCO1` (stereo not drawn), the “hERG current change (%, negative = inhibition) at 1uM” value amounted to 11.5%.
For `O=C(c1cccc(C(F)(F)F)c1)C1CCCN(C(=O)c2cc(C3CC3)[nH]n2)C1` (stereo not drawn) the value was 16.9%.
Regarding `CC(=O)Cc1nsc(NC(=O)c2ccc(F)cc2)n1`, the “hERG current change (%, negative = inhibition) at 1uM” value came out at 12.2%.
Consider `CNC(=O)c1cccn(Cc2cc(C(F)(F)F)cc(C(F)(F)F)c2)c1=O`, for which the “hERG current change (%, negative = inhibition) at 1uM” value turned out to be 12.3%.
Take `N#Cc1ccccc1NC(=O)COc1ccc2c(c1)OCO2`: the “hERG current change (%, negative = inhibition) at 1uM” value amounted to 13.3%.
With `O=C(COC(=O)c1nc(Cl)ccc1Cl)NCc1ccccc1`, the “hERG current change (%, negative = inhibition) at 1uM” value came out at 6.04%.
With `CCOc1cc(/C=N/n2c(COc3ccccc3)n[nH]c2=S)ccc1O`, the “hERG current change (%, negative = inhibition) at 1uM” value is 12.9%.
For `CN(C)/C=C1/N=C(c2ccccc2)OC1=O` the value was 0.573%.
For `COc1ccc(CCNC(=O)Cn2nnc3ccccc3c2=O)cc1`, the “hERG current change (%, negative = inhibition) at 1uM” value worked out at 14.1%.
In the case of `CC(C)C(=O)Nc1ccc(C(=O)Nc2nnc(C(C)C)s2)cc1` it was 12.5%; in that of `CS(=O)(=O)N1CCN(C(=O)c2cc(-c3ccncc3)nc3ccc(Cl)cc23)CC1`, 7.7%.
With `CC(=O)c1ccccc1NC(=O)COc1ccc(N(C)S(=O)(=O)c2ccc(C)c(C)c2)cc1`, the “hERG current change (%, negative = inhibition) at 1uM” value is listed as 0.287%.
In the case of `COc1ccc(/C=N/NC(=O)CCCOc2ccc(Cl)cc2Cl)cc1[N+](=O)[O-]`, the “hERG current change (%, negative = inhibition) at 1uM” value is given as -1.23%.
On to `O=C(CCCN1C(=O)/C(=C/c2ccccc2Cl)SC1=S)NNC(=O)c1ccccc1`, for which the “hERG current change (%, negative = inhibition) at 1uM” value came to 9.51%.
For the compound `Cc1cccc(NC(=S)NC(=O)c2ccc(-c3ccccc3)cc2)n1`, the “hERG current change (%, negative = inhibition) at 1uM” value was 30.1%.
Take `COCC(=O)N/N=C(\C)CC(=O)NCc1ccco1`: the “hERG current change (%, negative = inhibition) at 1uM” value is listed as 3.28%.
`COc1cc(/C=C2/C(=N)N3C(=NC2=O)SN=C3S(=O)(=O)C(C)C)ccc1OC(=O)c1ccco1`: the “hERG current change (%, negative = inhibition) at 1uM” value amounted to 14.2%.
As for `COc1ccc(-c2noc(CCC(=O)N(C)c3cccc(C)c3)n2)cc1`, the “hERG current change (%, negative = inhibition) at 1uM” value was 11.6%.
As to `COc1ccc(Cn2c(=O)[nH]c3cc(C(=O)N4CCN(c5ccccn5)CC4)ccc3c2=O)cc1`, the “hERG current change (%, negative = inhibition) at 1uM” value is recorded as 6.7%.
